Reference: the RNAGym collection of RNA variant scans (doi:10.1073/pnas.2313332121)
Variants at the background level are over-represented here.

B1: TPR 5TU (parent)
chain: GGAUCUUCUCGAUCUAACAAAAAAGACAAAUCUGCCACAAAGCUUGAGAGCAUCUUCGGAUGCAGAGGCGGCAGCCUUCGGUGGCGCGAUAGCGCCAACGUUCUCAACUAUGACACGCAAAACGCGUGCUCCGUUGAAUGGAGUUUAUCAUG

Variants of: B1
Assay: polymerase ribozyme fitness, log enrichment relative to wild type (log ratio); higher = more active; in vitro selection for triplet polymerase activity
Summary of the method: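 Only genotypes with ≥10 input reads and ≥1 read per output were kept after Illumina sequencing of input and output libraries. These libraries were PCR-built, transcribed mutants of each subunit of a heterodimeric triplet polymerase ribozyme, each put through one triplicate in vitro selection round with frozen incubation at −7 °C, gel excision of extended constructs, streptavidin-bead capture and RT-PCR. Fitness is a logarithmic ratio of genotype enrichment to wild-type enrichment, from inverse-variance-weighted replicate averages, with the logarithm in base 2.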

Point of comparison: G94A A137C, “polymerase ribozyme fitness (log ratio)” value -3.2. Against it:
- C93A U130A — lower, ≤ -4.2
- C93A U135G — lower, ≤ -4.2
- C93A U139A G140U — lower, ≤ -4.2
- C93A U146A U148C — lower, ≤ -4.2
- C93A U146C — higher, -2.18
- C93A U148G — lower, ≤ -4.2
- C93G A97U A121G — lower, ≤ -4.2
- C93G A98C G143C — lower, -4.05
- C93G A98U — higher, -2.82
- C93G A107G — lower, ≤ -4.2
- C93G A107U — lower, -4.14
- C93G A115G C131U — lower, -3.48
- C93G A119C — lower, -3.47
- C93G A119U — lower, -3.51
- C93G A122U — higher, -2.98
- C93G C95A C103U — lower, ≤ -4.2
- C93G C95A C123A — lower, ≤ -4.2
- C93G C95G — lower, ≤ -4.2
- C93G C96U — lower, -3.61
- C93G C96U A110G — lower, ≤ -4.2
- C93G C99G C103A A115U C132U — lower, ≤ -4.2
- C93G C99U — lower, ≤ -4.2
- C93G C103G — lower, ≤ -4.2
- C93G C103G C123A — lower, ≤ -4.2
- C93G C103G U104G G141C — lower, ≤ -4.2
- C93G C103U U139A — lower, ≤ -4.2
- C93G C108A — lower, ≤ -4.2
- C93G C108U — lower, -3.94
- C93G C114U — lower, -3.97
- C93G C118U C123U — within 0.2 log units, -3.29
- C93G C125G A150U — lower, -4.06
- C93G G112C — lower, ≤ -4.2
- C93G G128U U145A — lower, ≤ -4.2
- C93G G133A U135C U144G — lower, ≤ -4.2
- C93G G140U — lower, ≤ -4.2
- C93G G143C — lower, ≤ -4.2
- C93G U101C — the same, -3.2
- C93G U130A G141U — lower, ≤ -4.2
- C93G U148G — lower, ≤ -4.2
- C93U A97U — higher, -2.14
- C93U A98C — higher, -0.981
- C93U A106C — higher, -1.75
- C93U A107G — lower, ≤ -4.2
- C93U A107U U148A — lower, ≤ -4.2
- C93U A110G — within 0.2 log units, -3.25
- C93U A110G C118G U148C — lower, ≤ -4.2
- C93U A115G A121C G126U G143A — lower, ≤ -4.2
- C93U A119G C123U U135G — lower, -4.18
- C93U A119U G141A — higher, -0.528
- C93U A122U — higher, -0.696
- C93U A137C — lower, -4.07
- C93U A137G — within 0.2 log units, -3.18
- C93U A137G C149U — higher, -2.47
- C93U A137U — lower, ≤ -4.2
- C93U A142U — higher, -1.68
- C93U A150G — higher, -1.93
- C93U C95G — higher, -2.26
- C93U C95G A113G A137U A138U — lower, ≤ -4.2
- C93U C95U — higher, -2.43
- C93U C95U U102C A107C — lower, ≤ -4.2
- C93U C96A — higher, -1.65
- C93U C96A C99U U102G A110G — lower, ≤ -4.2
- C93U C99G A106U — lower, ≤ -4.2
- C93U C99G C108A C118A — lower, ≤ -4.2
- C93U C99G G136A — higher, -0.753
- C93U C103G A120U G141C U144A — lower, ≤ -4.2
- C93U C114A — lower, -3.41
- C93U C114A U145C — lower, ≤ -4.2
- C93U C116U — higher, -0.9
- C93U C118A C125A U139C — lower, -4.16
- C93U C118A U144G — higher, -1.06
- C93U C123G A138C — lower, ≤ -4.2
- C93U C125G — higher, -1.79
- C93U C149A — lower, -4.05
- C93U C149G — lower, -4.08
- C93U G94U A107C — lower, ≤ -4.2
- C93U G128C — within 0.2 log units, -3.31
- C93U G133U — lower, -3.7
- C93U G140U U148A — lower, ≤ -4.2
- C93U G143U — within 0.2 log units, -3.38
- C93U U109C — lower, ≤ -4.2
- C93U U135C — higher, -2.76
- C93U U135G U139A — lower, ≤ -4.2
- C93U U139A U151G — lower, ≤ -4.2
- C93U U144C — higher, -1.07
- C93U U146A — higher, -1.46
- G94A A97U C125G — higher, -2.14
- G94A A113C C123U C149A — lower, ≤ -4.2
- G94A C103G A150C — lower, ≤ -4.2
- G94A C116G C123G — higher, 0.258
- G94A C131U — higher, 0.309
- G94A C132G A138G — lower, ≤ -4.2
- G94A G117C A137G — within 0.2 log units, -3.09
- G94A G143U — lower, -3.57
- G94A U101G U148A — lower, -4.03
- G94A U102G — lower, ≤ -4.2
- G94A U127G U146G — within 0.2 log units, -3.33
- G94A U151A — lower, ≤ -4.2
- G94C A97G C116A — higher, -0.587
- G94C A106G — higher, -1.31
- G94C A115U G143C — lower, ≤ -4.2
- G94C A120U G140C — lower, ≤ -4.2
- G94C A122C — higher, -0.988
- G94C A137C C149U — lower, -3.76
- G94C A150U — higher, 1.09
- G94C C96U G136A G140A — lower, ≤ -4.2
- G94C C105G C116A — higher, -2.89
- G94C C108U A110U U135C — lower, ≤ -4.2
- G94C C116U G141C — lower, ≤ -4.2
- G94C C129G — within 0.2 log units, -3.39
- G94C G100C C131U G133C C149G — lower, ≤ -4.2
- G94C G117U — higher, 0.0157
- G94C G124U G143U — lower, -3.6
- G94C G133A — lower, -4.02
- G94C U101A G152A — higher, -2.72
- G94C U104G — higher, -1.24
- G94C U109G G112C A115G A137G — lower, ≤ -4.2
- G94C U127C — higher, -2.45
- G94C U144C A150G — lower, ≤ -4.2
- G94U A97G U127A A150U — lower, ≤ -4.2
- G94U A98U C99G A147G — within 0.2 log units, -3.16
- G94U A147G — higher, -1.51
- G94U A147U — higher, 0.0631
- G94U C95A G152A — lower, -3.85
- G94U C108U — lower, -3.54
- G94U C125U G143U — lower, -4.16
- G94U G100U — lower, -3.85
- G94U G141C — higher, -1.45
- G94U G141C U144G — higher, -1.83
- G94U U102C — higher, -2.06
- G94U U148C — higher, -2.92
- C95A C96A U102G U144A — lower, ≤ -4.2
- C95A C96A U104C A142C — lower, -4.07
- C95G A98G — higher, -1.57
- C95G C96U — higher, -2.05
- C95G C96U A120U A122C U139G — higher, -1.86
- C95U A97U C99U G133U A150G — lower, ≤ -4.2
- C95U A98G — higher, -1.9
- C95U A107G G124U — lower, ≤ -4.2
- C95U A115G G124U A142C — lower, ≤ -4.2
- C95U A142G — higher, -1.66
- C95U A150G — higher, -2.25
- C95U C96U U111A G136U — lower, ≤ -4.2
- C95U C116G U135A — higher, -2.67
- C95U C123U — higher, 0.509
- C95U C149A — lower, ≤ -4.2
- C95U G141U — higher, 0.762
- C95U U102G C105U — higher, -2.98
- C95U U104G — higher, -2.11
- C95U U104G C116U C131A — lower, ≤ -4.2
- C95U U111G — lower, ≤ -4.2
- C95U U130G — higher, -2.55
- C95U U139G U148A — within 0.2 log units, -3.14
- C95U U146G — higher, -1.04
- C95U U151G — lower, ≤ -4.2
- C96A A97G — higher, -0.635
- C96A A97G G126U G140U — lower, ≤ -4.2
- C96A A98U — higher, -0.335
- C96A A106C — higher, -0.591
- C96A A113U G140A — lower, ≤ -4.2
- C96A A115C — higher, -0.888
- C96A A115U — higher, -2.29
- C96A A115U A147C — lower, -3.48
- C96A A137U — lower, -3.87
- C96A A142U — higher, -1.24
- C96A C103G — higher, -2.53
